PubChem BioAssay AID624418 (National Center for Advancing Translational Sciences (NCATS), 2012)
The whole screen tested about 410,000 compounds, of which about 530 (0.13%) were called active. Inconclusive results, whose numbers are uncertain, are shown with a selection of clear calls. The call rests on the fitted dose curve; in most records, active means well fitted inhibition curve with a large enough effect; inconclusive means small, poorly fitted or top-dose-only effect, or another doubt; inactive means no such curve, though single readings can be large or run the other way. Where the call is inconclusive, the potency comes from a doubtful curve fit.

test: qHTS of GLP-1 Receptor Inverse Agonists: Cytotox Screen; conditions: HEK293 cAMP-luciferase reporter cells, luminescence, 24 h; activity change, negative = inhibition: at 38.3 µM (top of the series) unless noted
Method in brief: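 To flag toxic compounds, the library was rerun on cells for 24 hr at 37 deg C and 5% CO2. Viability-linked luminescence was captured 12 min after adding luciferase detection reagent.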
On the % scale 0 is the no-effect control and ±100 the full control effect; potency means the concentration at half of the fitted maximal effect.

Q: Which Potency does the source give for `COC(=O)c1scc(C)c1NS(=O)(=O)c1ccc(NC(C)=O)cc1` here?
A: Its Potency is inconclusive: 11.2 µM [inhibitor, partial curve, poor fit].

Q: With `CCOc1ccccc1C(=O)N1CC(=O)Nc2ccc(Cl)cc2C1c1ccccc1` (stereo not given) as the molecule, how does the “activity change, negative = inhibition” value read?
A: Its value is inactive: 2.57%.

Q: Which Potency does the source give for `O=C(N/N=C(\c1ccccc1)c1cccnc1)c1cccc(F)c1` here?
A: Its Potency is inconclusive: 22.4 µM [inhibitor, single point].

Q: With `O=[N+]([O-])c1cccc(CNc2ccc3c(c2)CCC3)c1` as the molecule, how does the “activity change, negative = inhibition” value read?
A: Its value is inactive: 1.34%.

Q: With `Cc1cc(NC(=O)C2C3C(=O)N(c4cccnc4)C(C(=O)NC(C)(C)C)C34C=CC2(C)O4)no1` (stereo not given) as the molecule, how does the “activity change, negative = inhibition” value read?
A: Its value is inactive: 5.13%.

Q: For `COc1ccc(C2=NN(c3ccccc3)C(c3ccc(OC)c(OC)c3)C2)cc1` (stereo not given), which “activity change, negative = inhibition” value is on record?
A: Its value is inactive: 17.2%.

Q: For `O=C(Nc1nccs1)C12CC3CC(C1)CC(C(=O)Nc1nccs1)(C3)C2`, which “activity change, negative = inhibition” value is on record?
A: The value was inactive: -13.6%.

Q: Which Potency does the source give for `COc1ccc(/C=C\C(=O)Oc2cccc(/C=N/NC(=O)Cc3ccc(OC)c(OC)c3)c2)cc1` here?
A: The Potency was inconclusive: 31.6 µM [inhibitor, partial curve, poor fit].

Q: For `CCCCCCN1C[C@@H](n2cc(-c3ccc(F)cc3)nn2)[C@H](O)C[C@@H]1c1ccc(OC)cc1`, which Potency is on record?
A: Its Potency is inconclusive: 28.2 µM [inhibitor, single point].

Q: For `CC1(C)Cc2c(c(N3CCOCC3)nc3sc4c(NCCN)ncnc4c23)CO1`, which Potency is on record?
A: Its Potency is inconclusive: 12.6 µM [inhibitor, partial curve, poor fit].

Q: Which Potency does the source give for `Cc1csc(N/N=C/c2ccccn2)n1` here?
A: The Potency was inconclusive: 10 µM [inhibitor, single point].

Q: Which Potency does the source give for `Nn1cnnc1N/N=C/c1ccc(Cl)cc1Cl` here?
A: Its Potency is inconclusive: 11.2 µM [inhibitor, single point].

Q: Which Potency does the source give for `CCCC(C)C1c2c(c(C)c(C)oc2=O)Oc2c(C)c(C)oc(=O)c21` (stereo not given) here?
A: The Potency was inconclusive: 3.98 µM [inhibitor, partial curve, poor fit].

Q: Which Potency does the source give for `COC(=O)c1[nH]c2ccccc2c1NC(=O)CN1CCN(C/C=C/c2ccccc2)CC1` here?
A: Its Potency is inconclusive: 28.2 µM [inhibitor, single point].

Q: For `COCC(=O)OC1CCn2c1nc1c2C(=O)C(C)=C(NC(C)=O)C1=O` (stereo not given), which Potency is on record?
A: Its Potency is active: 11.2 µM.

Q: Which Potency does the source give for `Cc1cccc(NC(=S)N=Nc2c(O)n(CN3CCOCC3)c3ccccc23)c1C` here?
A: Its Potency is inconclusive: 0.891 µM [inhibitor, full curve, poor fit].

Q: Which Potency does the source give for `CN(CC(CC(=O)O)c1ccccc1)S(=O)(=O)c1ccc(Br)cc1` (stereo not given) here?
A: Its Potency is inconclusive: 22.4 µM [inhibitor, single point].

Q: With `O=C(NCCCn1ccnc1)c1cc2ccccc2o1` as the molecule, how does the Potency read?
A: The Potency was inconclusive: 10 µM [inhibitor, single point].

Q: For `CCC(C(=O)Nc1ccccc1C(=O)OC)n1nc(C)c2c(C)n(-c3ccc(C)cc3)nc2c1=O` (stereo not given), which “activity change, negative = inhibition” value is on record?
A: The value was inactive: -5.02%.

Q: With `O=C(/C=C/c1ccccc1Cl)c1ccccc(=O)c1O` as the molecule, how does the Potency read?
A: Its Potency is inconclusive: 11.2 µM [inhibitor, single point].

Q: With `OC(CNCCC1C=Nc2ccccc21)Cn1c2ccc(Cl)cc2c2cc(Cl)ccc21` (stereo not given) as the molecule, how does the Potency read?
A: Its Potency is inconclusive: 28.2 µM [inhibitor, single point].

Q: With `O=C(Cn1c(=O)cnc2ccccc21)N1CCCc2ccccc21` as the molecule, how does the Potency read?
A: Its Potency is inconclusive: 2.51 µM [inhibitor, partial curve, poor fit].

Q: With `COc1ccc(C2=NOC(C(=O)NCc3ccccc3)C2)cc1` (stereo not given) as the molecule, how does the Potency read?
A: The Potency was inconclusive: 2.51 µM [inhibitor, full curve].

Q: With `COc1ccccc1/C=C/C(=O)OCC(=O)Nc1cc(C(F)(F)F)ccc1N1CCOCC1` as the molecule, how does the Potency read?
A: Its Potency is inconclusive: 2.82 µM [inhibitor, full curve].

Q: For `Cc1sc2cc3c(c(C(=O)c4ccccc4)[n+]2c1C)-c1cccc2cccc-3c12`, which Potency is on record?
A: The Potency was inconclusive: 10 µM [inhibitor, partial curve, poor fit].

Q: With `Cc1c(N=Nc2c(-c3ccc([N+](=O)[O-])cc3)[nH]n(C(N)=S)c2=O)cccc1[N+](=O)[O-]` as the molecule, how does the Potency read?
A: The Potency was inconclusive: 1.78 µM [inhibitor, full curve].

Q: Which “activity change, negative = inhibition” value does the source give for `CCOc1ccc(NC(=O)N2CCC(CN3CCc4ccccc4C3)CC2)cc1` here?
A: The value was inactive: -13.1%.

Q: With `Cc1cc(C)nc(NC(=S)NC(=O)c2ccccc2F)n1` as the molecule, how does the “activity change, negative = inhibition” value read?
A: Its value is inactive: -22%.

Q: With `C/C=C/C1=CC(=O)C[C@H](c2ccc(Cl)cc2)C1` as the molecule, how does the Potency read?
A: The Potency was inconclusive: 28.2 µM [inhibitor, single point].

Q: Which Potency does the source give for `CC(C)(C)c1ccc(/C=N/NC(=S)NCc2ccccc2)cc1` here?
A: The Potency was inconclusive: 14.1 µM [inhibitor, partial curve, poor fit].

Q: With `Cc1ccc(C)c(NC(=S)NNC(=S)Nc2ccc(C(C)C)cc2)c1` as the molecule, how does the Potency read?
A: Its Potency is inconclusive: 5.62 µM [inhibitor, partial curve].

Q: Which Potency does the source give for `Cn1nc([N+](=O)[O-])nc1Sc1nnc(-c2ccccc2)o1` here?
A: The Potency was inconclusive: 5.62 µM [inhibitor, full curve, poor fit].

Q: For `COc1ccc(/C=C2\SC(=S)N(CCCC(=O)Nc3ccccc3C(=O)O)C2=O)cc1OC`, which Potency is on record?
A: The Potency was inconclusive: 3.16 µM [inhibitor, partial curve, poor fit].

Q: With `Oc1ccc(N=Nc2ccccc2-c2nn[nH]n2)c(O)c1` as the molecule, how does the Potency read?
A: Its Potency is inconclusive: 7.94 µM [inhibitor, partial curve, poor fit].

Q: Which Potency does the source give for `CCOC(=O)C1=C(CNCc2ccc(C)cc2)NC(=O)NC1c1ccc(OC)cc1` (stereo not given) here?
A: The Potency was inconclusive: 14.1 µM [inhibitor, single point].

Q: With `O=C(COC(=O)c1ccc(Cl)nc1)NCCNC(=O)COC(=O)c1ccc(Cl)nc1` as the molecule, how does the “activity change, negative = inhibition” value read?
A: Its value is inactive: -8.04%.

Q: Which Potency does the source give for `CCN(CC)CCNC(=O)c1c(O)c2cccc3c2n(c1=O)CCC3` here?
A: Its Potency is inconclusive: 14.1 µM [inhibitor, single point].

Q: For `O=C(Nc1ccc(Cl)c(C(F)(F)F)c1)[C@@H]1CC=C[C@@H]2CCN(Cc3ccc(Cl)c(Cl)c3)C(=O)[C@@H]21`, which Potency is on record?
A: Its Potency is inconclusive: 4.47 µM [inhibitor, full curve, poor fit].

Q: With `COc1ccc(/C=C/C(=O)c2ccc(C)c([N+](=O)[O-])c2)cc1O` as the molecule, how does the Potency read?
A: The Potency was inconclusive: 28.2 µM [inhibitor, single point].

Q: With `CCOc1ccc(Nc2nc(NCC3CCCO3)c3ccccc3n2)cc1` (stereo not given) as the molecule, how does the Potency read?
A: The Potency was inconclusive: 17.8 µM [inhibitor, single point].
